Patent US20050245455A1, “Gonadotropin releasing hormone antagonists in gel-forming concentrations” (priority 2001, published 2005)
At least one peptide structure holds a part that was inferred or is arguable (an end, a ring closure or a residue). Where a SMILES comes first, the peptide text is derived from it. [ ]: non-standard residue; d: D form. The star is where a group is joined. dPhe(4-NHCONH2) = NC(=O)Nc1ccc(C[C@@H](N)C(=O)O)cc1; Dihydroorotyl(S) = O=C1C[C@@H](C(=O)*)NC(=O)N1; dPhe(4-Cl) = N[C@H](Cc1ccc(Cl)cc1)C(=O)O; Phe(4-NH2) = Nc1ccc(C[C@H](N)C(=O)O)cc1; d2Nal = N[C@H](Cc1ccc2ccccc2c1)C(=O)O; Lys(iPr) = CC(C)NCCCC[C@H](N)C(=O)O; d3Pal = N[C@H](Cc1cccnc1)C(=O)O

System: Serum LH
Assay: Efficacy of formulation in vivo: serum LH in ovariectomised Rhesus monkeys
Details: 25 mg/ml in 5% mannitol, 80 μl/kg s.c.

## CC(=O)N[C@H](Cc1ccc2ccccc2c1)C(=O)N[C@H](Cc1ccc(Cl)cc1)C(=O)N[C@H](Cc1cccnc1)C(=O)N[C@@H](CO)C(=O)N[C@@H](Cc1ccc(NC(=O)[C@@H]2CC(=O)NC(=O)N2)cc1)C(=O)N[C@H](Cc1ccc(NC(N)=O)cc1)C(=O)N[C@@H](CC(C)C)C(=O)N[C@@H](CCCCNC(C)C)C(=O)N1CCC[C@H]1C(=O)N[C@H](C)C(N)=O [Peptide 1, Ac-DNal-DCpa-DPal-Ser-Aph(L-Hor)-DAph(CONH2)-Leu-Lys(iPr)-Pro-DAla-NH2] (Ac-[d2Nal][dPhe(4-Cl)][d3Pal]S[Phe(4-NH2)](Dihydroorotyl(S))[dPhe(4-NHCONH2)]L[Lys(iPr)]P[dA]-NH2)
Day 1
  Serum LH, mean ± se: 10.5 ± 1.5 ng/mL
Day 2
  Serum LH, mean ± se: 11.8 ± 2.6 ng/mL
Day 7
  Serum LH, mean ± se: 6.7 ± 1.2 ng/mL
Day 14
  Serum LH, mean ± se: 5.8 ± 0.9 ng/mL
Day 21
  Serum LH, mean ± se: 6.6 ± 1.0 ng/mL
Day 28
  Serum LH, mean ± se: 9.4 ± 1.3 ng/mL
Day 35
  Serum LH, mean ± se: 8.8 ± 1.0 ng/mL
Day 42
  Serum LH, mean ± se: 11.8 ± 2.3 ng/mL
Day 72
  Serum LH, mean ± se: 29.5 ± 4.3 ng/mL
Day 101
  Serum LH, mean ± se: 48.9 ± 8.3 ng/mL
Hour 6
  Serum LH, mean ± se: 16.2 ± 1.9 ng/mL
Time 0 (baseline)
  Serum LH, mean ± se: 60.1 ± 7.5 ng/mL
